# From ChEMBL document CHEMBL4888484, “Replenishing the malaria drug discovery pipeline: Screening and hit evaluation of the MMV Hit Generation Library 1 (HGL1) against asexual blood stage Plasmodium falciparum ,using a nano luciferase reporter read-out” (2022)
# Hit rate of the full screen: of about 150,000 compounds, about 540 (0.36%) showed an effect of 50% or more. The list shows a part of the results.
# System: Plasmodium falciparum
# Experiment: Primary screen in NF54 nanoGlo assay, in single point, at 2uM, 72h; a lower Z score goes with more inhibition
# Type: functional, Erythrocyte
# Details: timepoint 72 hour
Structure (SMILES),% Inhibition,Z score
C[C@@H]1CN(c2ncccc2F)CC[C@@]1(O)C1CCOCC1,-28%,2.51
CC(=O)N1c2c(C)cccc2[C@@H](C)CC1(C)C,34%,-4.34
CN1CC[C@]23C(=O)N(Cc4cn(nn4)CCCOc4cccc(c4)[C@@H]12)c1ccccc13,-4%,0.83
COCC1CCN(C[C@H](O)c2cccc3ccccc23)CC1,6%,-0.69
CS(=O)(=O)N1CCOc2ccc(CCC(=O)NCc3ccc(F)cc3)cc2C1,-7%,0.85
CC1CN(c2ccc(F)cc2C#N)CC1N1CCOCC1 (stereo not given),-6%,0.65
Cc1nc2c(c(NCCCc3nc(=O)[nH][nH]3)n1)CCCC2,-3%,0.52
Cc1ccc(C(=O)N2CC[C@H](CO)[C@H](NC(=O)c3cccnc3)C2)s1,-8%,1.06
CCN1C(=O)c2c(C(=O)NCc3ccccc3Cl)ncn2C[C@@]1(C)C(=O)NC1CCCC1,-10%,1.97
C1CCCN(Cc2nc([C@H]3CCOC3)no2)CC1,-4%,0.69
Cc1nc(-c2csc(S(=O)(=O)Nc3ccc(F)c(F)c3)c2)sc1C(=O)N1CCCCC1,2%,-0.26
Cc1nccnc1N1CC(C)(C)[C@@](C)(O)C1,2%,-0.39
CCc1c(C(=O)N[C@@H](C)c2ncnn2CC)csc1C,3%,-0.4
Cc1ccc(Cc2nnc(NC(=O)[C@@H]3COc4ccccc4O3)o2)cc1C,-14%,1.63
NC(=O)c1nc(-c2ccc(Cl)cc2)nc2c1n(Cc1ccccc1)c(=O)n2-c1ccc(F)cc1,-12%,1.54
CCNC(=O)CCCC(=O)NC(C)(C)Cc1ccccc1Cl,-6%,0.92
Cn1cccc1C(=O)N1CC2CN(S(=O)(=O)c3ccc(F)cc3)CC(C1)O2,-9%,1.59
CCN=C(NC)NCCC1=CCCCC1,-3%,0.39
O=C(O)c1n[nH]cc1CN1CCc2onc(-c3cccc4ccccc34)c2C1,4%,-0.62
CC(C)c1ccnc(NCCCN2CCC[C@H](CO)C2)n1,1%,-0.15
CCCc1cnc(C)nc1N1CCN[C@H](C(=O)NC2CC2)C1,-3%,0.33
COCc1nc(CNc2cc(-c3ccco3)ccc2F)cs1,-5%,0.57
O=C(Cn1cc(C(=O)c2ccncc2)c(=O)c2ccc(F)cc21)NCc1ccc(Cl)cc1,4%,-0.47
CCCCC(=O)N1CCC(c2ccc(C)nc2)CC1,-4%,0.55
Cc1csc(CNC(=O)C2CCCCC2)n1,5%,-0.73
CCOC(=O)[C@H](Cc1ccccc1)N(C)CC(=O)Nc1ccc(CN2CCOCC2)cc1,-8%,0.72
Cn1cccc1C(=O)CN1C(=O)c2ccccc2C1=O,21%,-2.49
COC1CCC(NC(=O)NCc2noc3c2CCCC3)CC1 (stereo not given),-14%,1.42

Structure (SMILES),% Inhibition,Z score
O=C1[C@@H](Nc2cc(F)cc(Br)c2)CCN1C1CC1,-8%,0.85
CC(C)(O)C#Cc1cccc(C(=O)NCc2csc(N)n2)c1,-5%,0.79
O=C(NC[C@]1(O)CCc2ccccc21)Nc1ccc(F)cn1,-5%,0.51
Cc1ccccc1CCC(=O)N1C[C@H](C)[C@@](O)(C2CC2)C1,-9%,1.69
C1CC(=C2CCC(NC3CCOC(C4CC4)C3)CC2)C1 (stereo not given),-11%,1.44
O=C(c1cnc2c(c1)CCCC2)N1CCC(Oc2cccc(Cl)c2)CC1,-14%,2.76
O=C(NCC1(N2CCCCC2)CCOCC1)c1cc(F)cc(Cl)c1O,2%,-0.19
CC(C)CS(=O)(=O)N1CCC(F)(F)CC1,-14%,1.77
CC(Cn1cncn1)NC(=O)N1CCCC1c1ccncc1 (stereo not given),-15%,1.41
COc1ccc(CCc2nc(-c3cn(-c4ccccc4)nn3)no2)cc1,-22%,4.36
COc1ccccc1N(CCC(N)=O)C(=O)CN[C@H](c1ccncc1)C(C)C,12%,-1.37
CC[C@H]1C=CCN1C(=O)c1cccc(S(=O)(=O)N[C@H]2CC[C@H](O)CC2)c1,-8%,0.78
CCCNC(=O)N[C@@H]1C[C@H](COc2ccc(S(C)(=O)=O)cc2)[C@@H](O)[C@H]1O,-1%,0.14
C[C@H]1CCN(Cc2cccc3[nH]ccc23)CCS1(=O)=O,-2%,0.42
COc1ccccc1S(=O)(=O)N1C2CCC1CC(n1ccnc1)C2 (stereo not given),-16%,2.04
O=C(NCCCn1ccnc1)c1ccc(-n2cccn2)nn1,-2%,0.26
COc1ccc(NC(=O)C2Cc3ccccc3N3CCN(CCOc4ccccc4)CC23)cc1OC (stereo not given),-4%,0.65
Cc1cnc(N2CC[C@H](O)C2)nc1N1CC[C@H](O)C1,-7%,1.17
O=C1CC[C@H](C(=O)N2CCOC3CCCCC32)N1 (stereo not given in full),2%,-0.45
O=C(O)[C@@H]1CCCN1Cc1ccc(C2CCCC2)s1,-10%,1.24
CC(C)CCS(=O)(=O)N(C)CCCN1CCN(C)CC1,11%,-1.41
C[C@@H](C(=O)Nc1ccc(S(=O)(=O)N2CCCC2)cc1)N1CCN(c2ccccc2O)CC1,-7%,1.19
O=C(COc1ccc(F)cc1)N1CCCC[C@@H]1CCN1CCCCC1,-5%,0.73
O=C(O)[C@H]1CC[C@@H](C(=O)N2CCc3c(Cl)cccc3C2)C1,1%,-0.23
CC1(C)[C@H](C(=O)NC2CCCCC2)CC[C@]1(C)C(=O)O,-2%,0.26
O=S(=O)(NCC(F)F)c1ccc(OCC(F)(F)F)nc1,-8%,0.92
Nc1nccc(N2CC[C@H]3[C@H](CCC(=O)N3CCC3=CCCCC3)C2)n1,-3%,0.54
